Measurements: the supplement of paper PMC11417369
± gives the standard deviation of the averaged measurements. Some of the results follow.

system: PfAP2-LT AP2 domain (GST-tagged); assay: gcPBM binding intensity (ln(normalized median fluorescence intensity)); higher = stronger DNA binding
Method in brief: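 Probes on an Agilent 4 × 180k array were primer-extended, double-stranded and 36 bp long, taken from intergenic genomic regions, with negative controls added. GST-tagged P. falciparum DNA-binding domains from E. coli, about 25 μg on average, were applied to the array for 1 h in 1× PBS containing 1% milk, 0.2 mg/ml BSA, 0.5% salmon testes DNA and 0.03% Triton X-100. Binding intensity, obtained after Alexa488 anti-GST antibody detection and a 488 nm scan, is the highest Masliner-normalised natural-log median intensity across replicate spots of either probe orientation.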

| Sequence | gcPBM binding intensity (ln) |
| --- | --- |
| CAGTGCCAAATTAGCACACACATATATACATGAATT [CACACA_site2814] | 9.3 ± 0.38 |
| GTATATATGTATATATGTACATATATATAATATATT [XGTACX_site56] | 8.79 ± 0.38 |
| TAAAACATATATACAAGTACACAAAGGATATATATA [XGTACX_site3710] | 8.96 ± 0.42 |
| TATAGGTATTTATATACACACATATTCTTTTTACAC [CACACA_site6686] | 9.07 ± 0.38 |
| TACAATATTTTGAGACGTACATATATACATTTACAT [XGTACX_site5880] | 8.95 ± 0.47 |
| CTTACCAAAAGACACACACACACAAGATATATAAAT [CACACA_site6964] | 9.87 ± 0.28 |
| AAATTAAAATAAAAATGTACATATAAAGACACAACT [XGTACX_site3132] | 9.24 ± 0.47 |
| TGAACTTACTTGGACATACACACATATATATATATA [CACACA_site2977] | 9.54 ± 0.2 |
| TGTAAGTCGTTATAAGCACACACATAAATAAAAATA [CACACA_site8448] | 9.21 ± 0.42 |
| TATATATATATACCAACACACATACAGATATATATA [CACACA_site5060] | 9.24 ± 0.19 |
| TTTATATACAAAAATGCACACGAAAAGTAATATATA [CACACA_site9387] | 9.02 ± 0.34 |
| ATTTAAATACAAAATTGTACTTTTCTATATTTAACA [XGTACX_site6146] | 8.47 ± 0.39 |
| ACCCATTTAACAAAATGTACATTATTATAATTACTT [XGTACX_site7105] | 8.77 ± 0.34 |
| AAATTTTAAATAGTATGTACGTATGAAATATATATG [XGTACX_site7511] | 8.73 ± 0.3 |
| AAAATTTTACAGAAGGTGCGTATATTTTCCTGCTTA [GTGCAC_site9643] | 8.92 ± 0.41 |
| TTTGGAAAAAAATTATTTAAACGATATGAATTGATG [XGTACX_negctrl_site506] | 8.21 ± 0.4 |
| AATCATCTCATAAAAATTAATTAGTGTATGTCTTTT [TGCATGCA_negctrl_site416] | 8.65 ± 0.4 |
| CTACTTATAAATAGAACACACATAAGTGTATTTGTA [CACACA_site3759] | 8.75 ± 0.41 |
| ACAATATAGATTAAAAGTACAAATAGTAAATTATAT [XGTACX_site3165] | 8.96 ± 0.52 |
| AAAACAATATACTGTAGTACTGATGATATATATATA [XGTACX_site7798] | 9.01 ± 0.38 |
| TCTTAAATATATAAATTGAAAAATATAAAAGTAATA [CACACA_negctrl_site1558] | 8.3 ± 0.42 |
| ATAAAAAAAAATAGCACACATAAATATATTATATAT [CACACA_site767] | 8.96 ± 0.45 |

| Sequence | gcPBM binding intensity (ln) |
| --- | --- |
| AAAAAATACCTCTATAGTACATATATATAATATTTA [XGTACX_site7222] | 8.62 ± 0.33 |
| AAAAAAAATTTATTTGCATGCAAAAAAAAAAAAAAA [TGCATGCA_site67] | 8.79 ± 0.32 |
| TAATTATGTATGAACTGTACAGGTTATTTTATTTTA [XGTACX_site5204] | 8.65 ± 0.39 |
| TAAAATTTAAATTATACACACTTAAGTAACATCATC [CACACA_site4450] | 8.77 ± 0.37 |
| AAAAATAAAACAATTACACACATAACTTTATTTTTA [CACACA_site6563] | 8.81 ± 0.38 |
| AAAAGCTTAAAAAATTGTACATAAATGAATAAATAT [XGTACX_site5201] | 8.77 ± 0.44 |
| TAAACCTATTATACGGGTACTTATTTGATTCTTATA [XGTACX_site5292] | 8.69 ± 0.47 |
| ACAAATGGAACTCCTACAAAAAATTTCCATAATATT [XGTACX_negctrl_site132] | 8.56 ± 0.4 |
| ACCACCATATAACATACATGCATCTTTTTTCCCTTC [TGCATGCA_site583] | 9.23 ± 0.52 |
| GAACTCATTTAATATTGTACATTCTGATATTTTTTA [XGTACX_site5995] | 8.78 ± 0.48 |
| TCTTGTTAATATATTAAATATATCTATAAATATATA [XGTACX_negctrl_site486] | 8.44 ± 0.4 |
| TATATACATACATATACACACATATATATATATATA [CACACA_site401] | 9.72 ± 0.21 |
| TCATTGTTTAATATGTGTCCTCAAAATTTGTTATAT [XGTACX_site677] | 8.69 ± 0.34 |
| TCATATTCCAAGTGTACACATAAATCCCTAATAACA [CACACA_site5167] | 8.84 ± 0.33 |
| GTATAAAATATTGATTGTACTTTATTCATTTTTTTT [XGTACX_site2520] | 8.6 ± 0.67 |
| ACAATTCATTAGAATTGTACAAAAGGATGAAGCGAA [XGTACX_site5242] | 9.01 ± 0.45 |
| ATTTAATACAAATACACACACAAATATGTACCTATA [CACACA_site7718] | 9.44 ± 0.29 |
| ATTTTTTTTTTTTAATTTGATATTTGCGTTTATATA [CACACA_negctrl_site1305] | 8.8 ± 0.52 |
| CATTTAGTTCATACTATGCACACTACGTATATTTTT [CACACA_site2694] | 9.2 ± 0.38 |
| TGTATAAAAAACTAATGTACAAATGACAAGATATCT [XGTACX_site4600] | 8.84 ± 0.41 |
| AATGCACAGCTCTTAGGCAAAAGTGGGTATTTACAC [GTGCAC_negctrl_site579] | 8.81 ± 0.52 |
| AAAAAATGTTAAAAAAGTACTTTCTTTATTTAATAA [XGTACX_site2908] | 8.32 ± 0.56 |

| Sequence | gcPBM binding intensity (ln) |
| --- | --- |
| AGACGTAATAATTGTTGTACATAAAAAAATAAGAAA [XGTACX_site7594] | 8.88 ± 0.59 |
| AACAATTGTTAAAGGTGTACCATATGTATATAAGAA [XGTACX_site5723] | 9 ± 0.45 |
| ATGATATTATAAAAAAGTACATATGTATATAATTAT [XGTACX_site7652] | 9.1 ± 0.26 |
| TGTGTTAGCAAAAAAGTGCACAGGGAAAAAAAAATA [GTGCAC_site9397] | 8.91 ± 0.5 |
| AATATATGATAATTTTTTTTTTTTTTTTTTAAATAT [CACACA_negctrl_site452] | 8.13 ± 0.5 |
| TATTCTTATTATTACACACACAATTATATTTACCCC [CACACA_site6381] | 9.29 ± 0.32 |
| TATATATATATAATAGCATGCTATATTATATATATA [TGCATGCA_site886] | 8.59 ± 0.3 |
| TATTTTTTAATTGTTTCACACATTATTTTTTACATA [CACACA_site6078] | 8.86 ± 0.36 |
| TTAACATAAATTGTGTCATTTTTTTTTTTTTTTTTA [CACACA_negctrl_site1221] | 8.3 ± 0.54 |
| TACACCCAGAAATGCACACACATATATATATATATA [CACACA_site5289] | 10.26 ± 0.071 |
| ATAATATATATATATATGTATGTATATATGTATGTA [GTGCAC_negctrl_site575] | 8.97 ± 0.43 |
| ATGAACATGTGACAATGTACATTTATATCTTAAGAA [XGTACX_site4960] | 8.97 ± 0.53 |
| ATCAGGCAAAATTTTTGTACATATATATTTTATTTT [XGTACX_site1245] | 8.94 ± 0.35 |
| TTATAAATGTGCGTAGTGCATAAACAAAAAAAAAAT | 9.04 ± 0.52 |
| ATTTTTTTTTTTTTTTTTTTTTTTTATGAATGTTAT [CACACA_negctrl_site1319] | 8.57 ± 0.61 |
| AGATTTCAAGGTAATAGATCAATTTTAATTTGTAAA [CACACA_negctrl_site514] | 8.31 ± 0.57 |
| ATTTTTTTTTTTTTTTTTTTTTTTTTTTTTTTTTTT [CACACA_negctrl_site1364] | 8.935 ± 0.035 |
| TTAACACATTTTATGTGTACTCATATGATTTAAAAT [XGTACX_site7516] | 8.69 ± 0.4 |
| TTAAAATGAAGAAGTGCACACATATATATATTTATA [CACACA_site8063] | 9.11 ± 0.41 |
| CTAATAAAAAAAAAAAGTACATATGACAATATAAAG [XGTACX_site1598] | 8.91 ± 0.56 |
| AATTTTTTTTTCTTTTGTACGTAAATATGTGTAGGC [XGTACX_site215] | 8.69 ± 0.43 |
| TATAAACAGACGAAAACACACATATGTAGATATATA [CACACA_site6371] | 9.22 ± 0.47 |

| Sequence | gcPBM binding intensity (ln) |
| --- | --- |
| TATATATTAGTGTTGACACACACAAAAAAAAAAAAA [CACACA_site8392] | 8.94 ± 0.5 |
| AAAAAAAGTAAAAAGTGTACTTAATATATATATATA [XGTACX_site838] | 8.86 ± 0.35 |
| TGTAGCATTTAATTCACACATAAAAAATGTATCCAT [CACACA_site4986] | 8.63 ± 0.4 |
| TATATGTGATAACACGCACACAAATGTATATAATTT [CACACA_site2593] | 9.38 ± 0.35 |
| AAAAAAAAAAAACATACACACATTGAACTTTTATAT [CACACA_site3250] | 8.88 ± 0.45 |
| ATAAAATAAAAATTCTGTACAGAATTAAAAAAATAT [XGTACX_site6961] | 8.79 ± 0.47 |
| TATTCATGCATATACACACACATATATATATATTTT [CACACA_site3955] | 9.36 ± 0.22 |
| AAAAAAAAATTAAACATACACACGTTACTATTTTTA [CACACA_site1687] | 8.72 ± 0.51 |
| AATGAAAAATTGTAATGTACATAAATAAATAAATAA [XGTACX_site4048] | 9.05 ± 0.52 |
| ATCATAATTTATTATACACACAATACGTGACCTATT [CACACA_site6977] | 9.24 ± 0.47 |
| TTTTATATAAATATCACACACACACGCATGTTTTAA [CACACA_site6187] | 9.52 ± 0.27 |
| TACAATATACCTACTTGTACACAAAATAAAAGTAGT [XGTACX_site6029] | 8.89 ± 0.38 |
| TACACACCTAACTATGCATGCATCAATATAGTGGAT [TGCATGCA_site443] | 9.15 ± 0.18 |
| TTTTTTTATATTATACGCACTAATATATATATATAT [XGTACX_negctrl_site40] | 8.79 ± 0.49 |
| AAATAGACATAAAAAGGTACACAAATTGTGTATTAA [XGTACX_site527] | 9.04 ± 0.57 |
| TAACACTTTTTTTTTCGTACATATATTATATATATA [XGTACX_site5470] | 8.69 ± 0.45 |
| TTTAATTTTCCCTTCACACATAATATATATCTGTAT [CACACA_site5370] | 8.84 ± 0.56 |
| CGTTTGGTACACGTAGTGTTTTCGTTTGAATGTACC [GTGCAC_negctrl_site201] | 9.02 ± 0.44 |
| TTTAATCAATGATTTAATGAAAAAAGCAAAAAAAAA [GTGCAC_negctrl_site213] | 8.26 ± 0.55 |
| GACATATATAGCAATCGTACATATATTATAAAAGGT [XGTACX_site6891] | 9.24 ± 0.42 |
| AAAAGGAACAGACACACACACATATATAAATATGTA [CACACA_site7656] | 9.8 ± 0.42 |
| TATTAATTTATTTGTTGTACGTAAATATGCTTGTTT [XGTACX_site6591] | 8.87 ± 0.6 |
